Laboratory results published in PubChem BioAssay AID488969 (Vanderbilt High Throughput Screening Facility, 2010).
Over roughly 110,000 compounds, “z-score” has its median near -0.1; the highest 2% begin near 2. The list shows a part of the results. Calls of active or inactive are those of the source.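 The calls were made as follows: active = z-score in the third read window above 3 or below -3; inactive = the rest.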

target: Metabotropic glutamate receptor 8 (Rattus norvegicus) (UniProt P70579); experiment: mGluR8 Gi/Go-coupled signaling modulation – cell-based, rat, thallium flux, HTS, primary screen (AID 488969); conditions: HEK293 rat mGluR8, GIRK (G protein-gated inwardly rectifying potassium channel) thallium flux, FluoZin2; at 10 µM; stronger effect = higher value; submaximal glutamate (EC20) added with thallium
UniProt P70579, sequence (P70579 whole entry, looked up): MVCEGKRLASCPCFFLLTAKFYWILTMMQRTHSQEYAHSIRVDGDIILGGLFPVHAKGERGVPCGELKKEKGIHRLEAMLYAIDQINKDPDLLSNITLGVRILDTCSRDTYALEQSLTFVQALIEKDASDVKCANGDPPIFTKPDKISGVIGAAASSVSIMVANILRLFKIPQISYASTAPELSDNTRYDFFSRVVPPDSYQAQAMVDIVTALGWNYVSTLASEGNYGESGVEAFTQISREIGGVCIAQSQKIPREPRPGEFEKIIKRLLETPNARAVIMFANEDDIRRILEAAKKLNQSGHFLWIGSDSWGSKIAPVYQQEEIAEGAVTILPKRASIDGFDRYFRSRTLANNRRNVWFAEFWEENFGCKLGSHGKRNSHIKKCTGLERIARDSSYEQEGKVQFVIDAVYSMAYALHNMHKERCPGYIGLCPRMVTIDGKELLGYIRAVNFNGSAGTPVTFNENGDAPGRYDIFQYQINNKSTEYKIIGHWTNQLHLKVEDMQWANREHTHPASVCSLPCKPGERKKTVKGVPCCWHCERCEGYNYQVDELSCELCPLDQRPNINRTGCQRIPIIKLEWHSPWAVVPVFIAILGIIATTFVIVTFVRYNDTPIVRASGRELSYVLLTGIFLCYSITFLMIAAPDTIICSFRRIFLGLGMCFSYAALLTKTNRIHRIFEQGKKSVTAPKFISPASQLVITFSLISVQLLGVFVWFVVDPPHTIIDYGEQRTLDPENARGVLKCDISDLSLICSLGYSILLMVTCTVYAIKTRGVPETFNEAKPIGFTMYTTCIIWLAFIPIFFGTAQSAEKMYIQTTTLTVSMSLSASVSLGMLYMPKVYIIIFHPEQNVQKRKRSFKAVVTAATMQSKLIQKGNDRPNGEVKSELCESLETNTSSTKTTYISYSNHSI

SMILES	z-score
CCNc1nc(NOC)nc(OCC#N)n1	-0.197
CSCCC(NC(=O)c1ccc([N+](=O)[O-])cc1Cl)C(=O)OCC(=O)C12CC3CC(CC(C3)C1)C2 (centres undefined)	0.0401
COc1cc(NC(=O)c2ccco2)c(OC)cc1NC(=O)CSc1nnc(-c2cccs2)n1C	-1.07
CCc1ccc2nc(NC(=O)c3cc(C)on3)sc2c1	active: 10.1
CCC1CCCCN1C(=O)CN1C(=O)CSC1=O (centres undefined)	0.299
O=C(CSc1nnnn1C1CCCC1)N1CCCc2ccccc21	-0.581
O=C(Nc1ccc(-c2nnc(-c3ccccc3)o2)cc1)C1CCCO1 (centres undefined)	-0.525
c1ccc(OCc2nn3c(-c4ccccn4)nnc3s2)cc1	0.373
O=C(Oc1ccc(=O)n(-c2ccccc2)n1)c1ccccc1	-0.493
COc1cccc(-c2nn(-c3ccccc3)cc2CO)c1	0.851
O=C(C1CCN(C2CC(=O)N(c3ccc(F)cc3)C2=O)CC1)N1CCOCC1 (centres undefined)	-0.0657
Cc1ccc(OCC(=O)Nc2ccc(-c3nc4ncccc4o3)cc2)c(C)c1	-0.404
CCC(=O)Nc1ccc2c(c1)nc1n2CCSC1	0.0313
COc1ccc(NS(=O)(=O)c2ccc3c(c2)CCC(=O)N3)c(OC)c1	0.519
O=C(NCCC1=CCCCC1)C(=O)NCC1OCCCN1S(=O)(=O)c1ccccc1 (centres undefined)	0.0354
COc1ccccc1OCCNc1nc2c(c(=O)n(C)c(=O)n2C)n1C	1.41
CCCc1c(C)nc2ccccc2c1SCCC#N	-0.202
O=S(=O)(Nc1nc2ccccc2nc1Nc1ccc(N2CCOCC2)cc1)c1cc(Cl)ccc1Cl	-2.42
CCN1CNC(=S)N(c2cc(C)ccc2C)C1	-0.26
COc1ccc(N(CC(=O)N2c3ccccc3CC2C)S(=O)(=O)c2c(C)nn(C)c2C)cc1 (centres undefined)	-0.0129
COCCNC(=O)C(c1ccncc1)N(C(=O)Cn1nnc2ccccc21)c1ccc(OC)cc1 (centres undefined)	1.09
CCOC(=O)Nc1nc(-c2ccccc2)c(C(=O)c2ccc(Cl)cc2)s1	-0.238

SMILES	z-score
COCCN(CCOC)c1nc(N)c2c(N)nc3c(c2c1C#N)CC(=O)N3Cc1ccc(Cl)cc1	-0.21
Cn1c(=O)oc2cc(S(=O)(=O)Nc3ccc4c(c3)OCO4)ccc21	-0.594
CC(C)Cn1c(N)c(C(=O)CSc2ccc3c(c2)OCCO3)c(=O)n(C)c1=O	-0.027
Cc1cc(C)c(S(=O)(=O)c2ccccc2C)c(OCC(C)(C)C)n1	-0.185
COc1nn(C(C)C(=O)N2N=C(C(F)F)CC2(O)C(F)F)cc1[N+](=O)[O-] (centres undefined)	-0.154
COc1ccccc1C1CC(c2ccc(Cl)cc2)Nc2nc(N)nn21 (centres undefined)	0.0485
CCNc1nnc(CSc2nc3ccccc3s2)s1	0.134
O=C(/C=C/c1ccccc1)NC1CCSC1=O (centres undefined)	0.793
COc1cccc(NS(=O)(=O)c2cn(C)c(=O)n(C)c2=O)c1	-0.0462
CC(=O)Nc1cccc(NC(C)=O)n1	0.588
Cc1ccc(NS(=O)(=O)c2c(C)[nH]c(=O)[nH]c2=O)cc1C	-0.25
CCN(CC)c1ccc(-n2c(C)c(C(C)=O)c(C(C)=O)c2C)cc1	-0.203
COc1ccc(NCCC#N)cc1	0.269
Cc1cc(C(=O)N(C)CC(=O)Nc2ccccc2C(F)(F)F)c(C)o1	0.23
CC(=O)NCCn1c(SCc2ccc(C)cc2C)nc2ccccc2c1=O	0.0774
CN(CC1CCCO1)S(=O)(=O)c1ccc(C(=O)Nc2nc(-c3ccccn3)cs2)cc1 (centres undefined)	-0.115
CCCCNC(=O)CCn1c(=O)c2ccccc2n(CC(=O)Nc2ccccc2OCC)c1=O	1.06
NC(=O)c1cn(-c2ccccc2)nc1-c1cccnc1	0.17
Cc1sc(NC(=O)/C=C/c2ccc3c(c2)OCO3)nc1-c1ccccc1	-0.36
COc1ccc(C=O)cc1OS(=O)(=O)c1ccc(NC(C)=O)cc1	-0.159
O=C(Nc1cccc(-c2nc3ncccc3o2)c1)c1sc2cc(Cl)ccc2c1Cl	-0.448
CC[C@H](C)NC(=O)c1ccc(Cn2c(=S)[nH]c3c([nH]c4ccc(OC)cc43)c2=O)cc1	-0.188

SMILES	z-score
C=CCn1c(C)cc(C(=O)COC(=O)c2ccc3c(c2)NC(=O)CS3)c1C	-0.148
CC(Sc1ccc(Cl)cc1)C(=O)Nc1ccc2c(c1)OCO2 (centres undefined)	-0.274
COc1ccc(S(=O)(=O)Nc2nc3ccccc3s2)cc1	0.179
COC(=O)c1ccc(N2CCN(C)CC2)c(NC(=O)COc2ccc(OC)cc2)c1	-0.956
Cc1ccc(S(=O)(=O)N(CC(=O)N/N=C/c2ccco2)c2cc(Cl)cc(Cl)c2)cc1	0.0879
CCN(CC)c1ccc(N2C(=O)/C(=C/c3cccnc3)SC2=S)cc1	-0.107
N#C/C(=C\c1ccc(-c2cccc(C(F)(F)F)c2)o1)C(=O)Nn1cnnc1	-0.113
O=C(CCN1C(=O)C2CC=C(Cl)CC2C1=O)NCc1ccco1 (centres undefined)	-0.187
OCCNc1nc(-c2ccccc2)c2ccccc2n1	-0.0741
CC(C)c1nc(Cl)c(C#N)c2c1CSC(C)(C)C2	-0.331
COc1cccc(NC(=O)CN2CCC(C)CC2)c1	0.0168
O=S(Cc1ccc(Br)cc1)Cc1nnc(SCc2c(Cl)cccc2Cl)n1-c1ccccc1 (centres undefined)	0.0461
O=C(c1ccc(CS(=O)(=O)c2ccc(Br)cc2)o1)N1CCCC1	-0.0644
COc1cccc(NS(=O)(=O)c2ccc3[nH]cc(C(=O)NCCN4CCOCC4)c(=O)c3c2)c1	-0.117
CC(=O)CCS(=O)(=O)c1ccc(NC(C)=O)cc1	-0.167
COCCCNC(=S)N1CCN(C(=O)C(=O)Nc2ccc(C(=O)OC)cc2)CC1	-0.209
COc1ccccc1C(=O)N1CCCN(C(=O)c2ccccc2OC)CC1	0.134
CCCNC(=O)c1ccc(C2SCC(=O)N2Cc2ccccc2)cc1 (centres undefined)	-0.173
C=CCSc1nc(C)cc(/C=C\c2ccccc2)c1C#N	0.00317
CCC1(C)Cc2c(sc3c2c(=O)n(-c2ccccc2)c(=O)n3C)CO1 (centres undefined)	-0.673
C/C(O)=C/c1nc2ccccc2[nH]c1=O	-0.0224
COc1ccccc1C(=O)N/C(=C\c1ccc2c(c1)OCO2)C(=O)NCCc1nc2ccccc2[nH]1	-1.09

SMILES	z-score
Cc1ccc(-c2nc3ccc(C(=O)O)cc3nc2-c2ccc(C)cc2)cc1	-0.396
CSc1ccc(Cl)c(C(=O)OCC(=O)N2CCOCC2)c1	-0.0774
CCSc1nc2ccccc2n1CCOc1ccccc1	-0.603
Cc1ccc(-c2nnc(SCC(=O)Nc3cccc(C(=O)N4CCOCC4)c3)n2C)cc1	1.94
CC1(C)Cc2c(sc3c2c2ncnn2c2nnc(SCC(=O)NCc4ccco4)n32)CO1	-0.227
C/C(N)=C(/C#N)C(=O)CSc1nc2ccccc2c(=O)n1-c1ccc(C)c(Cl)c1	-0.275
O=[N+]([O-])c1ccccc1S(=O)(=O)Oc1ccc(C(=S)N2CCOCC2)cc1	-0.236
CCOC(=O)c1csc(NC(=O)C2CCCCC2)n1	-0.156
CC(C)(C)SCCNS(=O)(=O)c1ccc2ccccc2c1	-1.1
CC(=O)c1cc(-c2ccccc2)n(CC(=O)Nc2cccc(C)c2)c1C	-0.0856
CCOC(=O)N1CCN(C(=O)CCN2C(=O)COc3ccc(C)cc32)CC1	1.43
COc1ccc(-c2nc3cnccn3c2Nc2ccc(C)cc2)cc1	-0.524
COc1cc(CNC(C)(C)CO)ccc1OCC(=O)Nc1ccc(Br)cc1	-0.16
COc1cc(/C=N/n2c(C)nnc2C)cc(OC)c1OC	0.377
CCC(SC1=N/C(=C/c2ccccc2OC)C(=O)N1c1ccccc1)C(=O)Nc1cc(C)on1 (centres undefined)	0.258
Cc1cccc(N2CCN(CC(=O)Nc3ccccc3[N+](=O)[O-])CC2)c1C	-0.117
CC(C)OC(=O)C1C2C=CC3(CN(CC4CCCO4)C(=O)C13)O2 (centres undefined)	-0.25
O=C(NCCN1C(=O)S/C(=C\c2ccccc2F)C1=O)C1CCCN1C(=O)c1cccs1 (centres undefined)	-0.396
CCc1ccc(-n2c(O)cnc2Nc2nc(C)cc(C)n2)cc1	-0.174
CCc1nc2ccccc2c(C(=O)OCCN2C(=O)c3ccccc3C2=O)c1C	-0.709
CC(C)COP(=O)(c1ccc(N(C)C)cc1)C(Nc1ccccc1)c1cccnc1 (centres undefined)	1.07
O=C(OCc1c(Cl)cccc1Cl)c1cccnc1Cl	-0.167

SMILES	z-score
Cc1ccc(-c2nnc(NCc3nc4ccccc4[nH]3)c3ccccc23)cc1S(=O)(=O)N(C)C	-0.904
Cc1ccccc1NC(=O)c1sc2nc[nH]c(=O)c2c1C	-0.123
COc1ccc(-c2nc(C)c(C(C)=O)n2O)cc1	0.00611
CC(C)C(C)(C#N)NC(=O)CSc1nnc(C(F)(F)F)n1C (centres undefined)	0.164
FC(F)(F)COc1nc(N2CCOCC2)nc(N(c2ccccc2)c2ccccc2)n1	-0.75
O=C(NCCC1=CCCCC1)c1ccc(Cl)c(S(=O)(=O)N2CCOCC2)c1	0.645
CCNC(=O)OCCC12CC3CC(CC(C3)C1)C2	-0.876
CC(NC(=O)c1ccccc1)C(c1cccs1)N1CCOCC1 (centres undefined)	1.04
O=C(O)C1CCCCC1C(=O)Nc1ccccc1Cl (centres undefined)	-0.189
CCOC(=O)c1nc(C)n(-c2cc(Cl)cc(Cl)c2)n1	-0.0205
Cc1ccc(-n2ncc3c(NCCCN4CCOCC4)ncnc32)c(C)c1	0.473
COc1ccc([N+](=O)[O-])cc1NC(=O)C(C)N(C)Cc1ccc(Br)cc1 (centres undefined)	-0.255
COC(=O)C(NC(=O)c1ccc(F)cc1)(Nc1nc(C)cs1)C(F)(F)F (centres undefined)	-0.229
O=C(NCCCN1CCc2ccccc2C1)Nc1ccc(Br)cc1	0.628
Cc1onc(-c2ccccc2)c1C(=O)NC(=S)Nc1sc2c(c1C#N)CCCC2	active: 4.1
CCOC(=O)C1CCN(C(=O)Cn2cc(C(=O)c3ccco3)c3ccccc32)CC1	-0.153
CC(=O)Nc1sc2c(c1C(c1cccs1)N1CCOCC1)CCCC2 (centres undefined)	-0.586
COc1ccc(-c2nc(N)n[nH]2)cc1	-0.101
CCn1c2ccccc2c2cc(NC(=O)COC(=O)c3ccccc3Br)ccc21	1.07
Cc1ccnc(NC(c2ccncc2)c2c(C)[nH]c3ccccc23)c1 (centres undefined)	-0.317
CS(=O)(=O)c1ccc(Sc2nc3ccccc3s2)c([N+](=O)[O-])c1	-0.034
